The record followed here is the BET-seq Pho4 binding data (Le et al. 2018).

The list shows a part of the results. Values were computed here from the reads of four pooled replicates and scatter widely.

This assay has as its target T1, Pho4 (S. cerevisiae) (UniProt P07270).
T1 sequence: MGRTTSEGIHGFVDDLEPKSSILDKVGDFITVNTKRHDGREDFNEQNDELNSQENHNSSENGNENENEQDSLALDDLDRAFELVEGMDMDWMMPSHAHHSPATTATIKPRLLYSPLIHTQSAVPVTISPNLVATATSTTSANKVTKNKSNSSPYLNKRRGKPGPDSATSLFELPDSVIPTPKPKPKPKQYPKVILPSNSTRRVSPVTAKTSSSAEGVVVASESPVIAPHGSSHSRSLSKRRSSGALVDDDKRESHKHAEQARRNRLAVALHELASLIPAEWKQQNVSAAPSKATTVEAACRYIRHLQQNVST
Kind of assay: relative binding free energy (BET-seq); higher = weaker binding. The note with it: reference: library average.
Consider AGGTACACGTGGATAG, for which the “relative binding free energy” value is 0.07 kcal/mol.
Take TTAGACACGTGTACTG: the “relative binding free energy” value is 0.08 kcal/mol.
In the case of GTGGACACGTGAATTT, the “relative binding free energy” value amounted to 0.31 kcal/mol.
As to CGAAGCACGTGTTTGG, the “relative binding free energy” value was -0.19 kcal/mol.
Under TCGGGCACGTGTGGCC stands 0.16 kcal/mol; under GTTTGCACGTGACCGG, 0.11 kcal/mol.
As to TTGAACACGTGGGCAT, the “relative binding free energy” value is -0.12 kcal/mol.
For CTTAGCACGTGTTATG the value was -0.16 kcal/mol; for AATAGCACGTGTTGCT, -0.12 kcal/mol.
Under CGGGACACGTGTATAG stands 0.05 kcal/mol; under ACGGCCACGTGGTAGG, -0.08 kcal/mol.
As to AAGTTCACGTGCACGG, the “relative binding free energy” value came to 0.39 kcal/mol.
Consider TGGTGCACGTGAGTAA, for which the “relative binding free energy” value came to 0.04 kcal/mol.
Under AATGGCACGTGTGCGT stands -0.22 kcal/mol; under CTGAGCACGTGAGGGA, 0.2 kcal/mol.
Regarding AGTGGCACGTGGGATC, the “relative binding free energy” value was -0.16 kcal/mol.
Turning to GCGTACACGTGGGGTC, the “relative binding free energy” value is -0.03 kcal/mol.
For ATGATCACGTGTGTAA the value was 0.09 kcal/mol; for GGTCGCACGTGGAATG, 0.16 kcal/mol; for TGCGACACGTGATGGG, 0.17 kcal/mol.
Under GGAGTCACGTGGCCTG stands 0.03 kcal/mol.
For TAGGCCACGTGCGTGT the value was -0.27 kcal/mol; for ACTTTCACGTGTTGTA, 0.26 kcal/mol.
In the case of TGTATCACGTGTTCGG, the “relative binding free energy” value was 0.18 kcal/mol.
For AATTGCACGTGCTAGT the value was -0.04 kcal/mol.
For AGTTACACGTGTAGAT the value was 0.32 kcal/mol; for AGTGCCACGTGGGTGC, -0.3 kcal/mol; for AAATGCACGTGGAGGC, 0.01 kcal/mol.
As to ATATTCACGTGAAAGG, the “relative binding free energy” value is 0.38 kcal/mol.
Under ATTAACACGTGAGGTG stands 0.22 kcal/mol.
For GGTGACACGTGGTACG the value was 0.02 kcal/mol.
Under TAGCACACGTGGTGTT stands -0.12 kcal/mol.
Turning to GTCATCACGTGCGGGG, the “relative binding free energy” value was 0.14 kcal/mol.
Take TATTTCACGTGTACTG: the “relative binding free energy” value stood at 0.18 kcal/mol.
Under TATGCCACGTGAGTGG stands 0.14 kcal/mol; under TGTGGCACGTGTGGAA, -0.04 kcal/mol.
For TTTGTCACGTGAGATT the value was 0.26 kcal/mol; for CTTTCCACGTGTGTGT, -0.04 kcal/mol; for AAAATCACGTGGGTAA, 0.13 kcal/mol.
Under TTTTTCACGTGGGTTG stands 0.19 kcal/mol; under CTGTGCACGTGGTGCT, -0.08 kcal/mol.
With TGTGGCACGTGAGTTA, the “relative binding free energy” value came to 0.12 kcal/mol.
Under GGGGGCACGTGCGAGA stands -0.13 kcal/mol; under CGTGGCACGTGCTGTA, -0.17 kcal/mol; under CCTTTCACGTGGGGGG, 0.09 kcal/mol.
For ATGTACACGTGCGGTC the value was -0.01 kcal/mol; for TCGGTCACGTGATGTC, 0.35 kcal/mol.
Under AATGTCACGTGCTAGG stands -0.02 kcal/mol.
On to ATAGACACGTGTATTG, for which the “relative binding free energy” value was determined as 0.12 kcal/mol.
For GGTTTCACGTGCGCGG the value was 0.28 kcal/mol; for AGGTACACGTGCGTTA, 0.05 kcal/mol.
Consider TGTAGCACGTGATGTG, for which the “relative binding free energy” value is -0.01 kcal/mol.
Under CTTGACACGTGATGTT stands 0.11 kcal/mol.
For ATTGACACGTGCAGTG the value was -0.04 kcal/mol; for TTCTGCACGTGTGGAC, 0.12 kcal/mol.
For CGTATCACGTGAGGGC the value was 0.31 kcal/mol.
Consider ATCGGCACGTGTGTTC, for which the “relative binding free energy” value was -0.05 kcal/mol.
Under GGATGCACGTGTACGG stands -0.13 kcal/mol; under TAATGCACGTGTAGTG, 0.03 kcal/mol.
Under ATAAGCACGTGTTGAT stands -0.17 kcal/mol; under TTGAACACGTGGCAGT, 0.09 kcal/mol.
Under GGTGACACGTGGGGCA stands -0.04 kcal/mol.
For the sequence TTATCCACGTGTGTTA, the “relative binding free energy” value was determined as 0.06 kcal/mol.
For GTACTCACGTGGGGTG the value was 0.07 kcal/mol; for GTGGGCACGTGGTAGA, -0.09 kcal/mol; for TGGGTCACGTGGGGGG, -0.01 kcal/mol.
For TGTTTCACGTGACGAA the value was 0.32 kcal/mol; for GTGATCACGTGTGTAT, 0.22 kcal/mol; for TGTGTCACGTGGAGGG, 0.02 kcal/mol.
Under GTAGACACGTGGTAGG stands 0.05 kcal/mol; under CGGGGCACGTGGGCTT, -0.11 kcal/mol; under TAGTGCACGTGTCTGA, -0.04 kcal/mol.
In the case of TAGGGCACGTGCTTGA, the “relative binding free energy” value was -0.23 kcal/mol.
